# Whole data set: some 2,900 compounds, median “NF-kB SEAP reporter activity, fold change vs agonist alone” near 0.99, cut for the highest 2% near 2.6. The list shows a part of the results.
# Experiments:
# RAW-Dual [1] = test: NF-kB SEAP reporter activity, fold change vs agonist alone; higher = enhanced NF-kB activity; conditions: library stock concentration (final ~1000-fold dilution): 10 mM
# Procedure, shortened: (§1)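 After 50 nL of library stock was delivered by pin tool to RAW-Dual macrophages (50,000 cells/well, DMEM, 384-well plates), a PRR agonist was added 1 h later and the plates were kept at 37 °C, 5% CO2. Twenty hours later, IRF was read from supernatant by QuantiLuc luminescence and NF-κB by QuantiBlue absorbance at 620 nm. Reporter activity is stated as fold change over agonist-alone wells. Wells with IncuCyte confluency under 70% of agonist controls in both mask sets were counted as cytotoxic.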
# RAW-Dual [2] = test: NF-kB SEAP reporter activity, fold change vs agonist alone; cytotoxicity flag (confluency mask): not cytotoxic; higher = enhanced NF-kB activity
# Procedure, shortened: as §1
# RAW-Dual [3] = test: NF-kB SEAP reporter activity, fold change vs agonist alone; cytotoxicity flag (confluency mask): cytotoxic (confluency <70% of control); higher = enhanced NF-kB activity
# Procedure, shortened: as §1
# [4] = cytotoxicity flag (confluency mask): not cytotoxic, agonist: Imiquimod (TLR7) […]
# [5] = cytotoxicity flag (confluency mask): not cytotoxic, agonist: MPLA (TLR4) […]
# [6] = agonist: ODN 1826 (TLR9) 0.5 ug/mL
# [7] = agonist: Pam2CSK4 (TLR2/6) 0.1 ug/mL
# [8] = agonist: Pam3CSK4 (TLR2/1) 0.1 ug/mL
compound,measurement,setting,value
COc1cc(C)[nH]c(=O)c1CNC(=O)c1c(C)n(C(C)C2CCN(CC(F)(F)F)CC2)c2ccccc12 (stereo not drawn),NF-kB SEAP reporter activity,RAW-Dual [1]; [4],0.35
same,NF-kB SEAP reporter activity,RAW-Dual [1]; [5],0.914
COc1cc(C)[nH]c(=O)c1CNC(=O)c1c(C)n(C(C)C2CCN(CC(F)(F)F)CC2)c2ccccc12 (stereo not drawn) (library stock concentration (final ~1000-fold dilution): 10 mM),NF-kB SEAP reporter activity,RAW-Dual [2]; agonist: LPS (TLR4) 0.1 ug/mL,0.78
same,NF-kB SEAP reporter activity,RAW-Dual [2]; [6],0.953
same,NF-kB SEAP reporter activity,RAW-Dual [2]; [7],0.647
same,NF-kB SEAP reporter activity,RAW-Dual [2]; [8],0.74
CC1=C(O)C(=O)C=C2C1=CC=C1C2(C)CCC2(C)C3CC(C)(C(=O)O)CCC3(C)CCC12C (stereo not drawn),NF-kB SEAP reporter activity,RAW-Dual [1]; [4],0.191
same,NF-kB SEAP reporter activity,RAW-Dual [1]; [5],0.203
CC1=C(O)C(=O)C=C2C1=CC=C1C2(C)CCC2(C)C3CC(C)(C(=O)O)CCC3(C)CCC12C (stereo not drawn) (library stock concentration (final ~1000-fold dilution): 10 mM),NF-kB SEAP reporter activity,RAW-Dual [2]; agonist: LPS (TLR4) 0.1 ug/mL,0.287
same,NF-kB SEAP reporter activity,RAW-Dual [2]; [6],0.179
same,NF-kB SEAP reporter activity,RAW-Dual [2]; [7],0.297
same,NF-kB SEAP reporter activity,RAW-Dual [2]; [8],0.119
O=c1[nH]c2ccccc2n1CCCN1CCC(n2c(=O)[nH]c3cc(Cl)ccc32)CC1,NF-kB SEAP reporter activity,RAW-Dual [1]; [4],1.07
same,NF-kB SEAP reporter activity,RAW-Dual [1]; [5],1.04
O=c1[nH]c2ccccc2n1CCCN1CCC(n2c(=O)[nH]c3cc(Cl)ccc32)CC1 (library stock concentration (final ~1000-fold dilution): 10 mM),NF-kB SEAP reporter activity,RAW-Dual [2]; agonist: LPS (TLR4) 0.1 ug/mL,0.971
same,NF-kB SEAP reporter activity,RAW-Dual [2]; [6],0.2
same,NF-kB SEAP reporter activity,RAW-Dual [2]; [7],0.84
same,NF-kB SEAP reporter activity,RAW-Dual [2]; [8],1.06
CC(=O)OC(C)(C)/C=C/C(=O)C(C)(O)C1C(O)CC2(C)C3CC=C4C(CC(O)C(=O)C4(C)C)C3(C)C(=O)CC12C (stereo not drawn),NF-kB SEAP reporter activity,RAW-Dual [1]; [4],0.752
same,NF-kB SEAP reporter activity,RAW-Dual [1]; [5],0.271
CC(=O)OC(C)(C)/C=C/C(=O)C(C)(O)C1C(O)CC2(C)C3CC=C4C(CC(O)C(=O)C4(C)C)C3(C)C(=O)CC12C (stereo not drawn) (library stock concentration (final ~1000-fold dilution): 10 mM),NF-kB SEAP reporter activity,RAW-Dual [2]; agonist: LPS (TLR4) 0.1 ug/mL,0.218
same,NF-kB SEAP reporter activity,RAW-Dual [2]; [6],0.209
same,NF-kB SEAP reporter activity,RAW-Dual [2]; [7],0.103
same,NF-kB SEAP reporter activity,RAW-Dual [2]; [8],0.158
CC1CCCC(=O)CCC/C=C/c2cc(O)cc(O)c2C(=O)O1 (stereo not drawn),NF-kB SEAP reporter activity,RAW-Dual [1]; [4],0.82
same,NF-kB SEAP reporter activity,RAW-Dual [1]; [5],1.36
CC1CCCC(=O)CCC/C=C/c2cc(O)cc(O)c2C(=O)O1 (stereo not drawn) (library stock concentration (final ~1000-fold dilution): 10 mM),NF-kB SEAP reporter activity,RAW-Dual [2]; agonist: LPS (TLR4) 0.1 ug/mL,1.76
same,NF-kB SEAP reporter activity,RAW-Dual [2]; [6],0.856
same,NF-kB SEAP reporter activity,RAW-Dual [2]; [7],1.08
same,NF-kB SEAP reporter activity,RAW-Dual [2]; [8],1.24
c1ccc2c(c1)Sc1ccccc1N2CC1CN2CCC1CC2 (stereo not drawn),NF-kB SEAP reporter activity,"RAW-Dual [1]; cytotoxicity flag (confluency mask): cytotoxic (confluency <70% of control), agonist: Imiquimod (TLR7) […]",1.89
same,NF-kB SEAP reporter activity,"RAW-Dual [1]; cytotoxicity flag (confluency mask): cytotoxic (confluency <70% of control), agonist: MPLA (TLR4) […]",1.76
c1ccc2c(c1)Sc1ccccc1N2CC1CN2CCC1CC2 (stereo not drawn) (library stock concentration (final ~1000-fold dilution): 10 mM),NF-kB SEAP reporter activity,RAW-Dual [3]; agonist: LPS (TLR4) 0.1 ug/mL,0.854
same,NF-kB SEAP reporter activity,RAW-Dual [3]; [6],0.455
same,NF-kB SEAP reporter activity,RAW-Dual [3]; [7],0.794
same,NF-kB SEAP reporter activity,RAW-Dual [3]; [8],0.746
Cc1c(C(C)C2NCC(C)CC2O)ccc2c1CC1C2CC=C2CC(O)CCC21C (stereo not drawn),NF-kB SEAP reporter activity,RAW-Dual [1]; [4],0.945
same,NF-kB SEAP reporter activity,RAW-Dual [1]; [5],1.15
Cc1c(C(C)C2NCC(C)CC2O)ccc2c1CC1C2CC=C2CC(O)CCC21C (stereo not drawn) (library stock concentration (final ~1000-fold dilution): 10 mM),NF-kB SEAP reporter activity,RAW-Dual [2]; agonist: LPS (TLR4) 0.1 ug/mL,1.1
same,NF-kB SEAP reporter activity,RAW-Dual [2]; [6],1.02
same,NF-kB SEAP reporter activity,RAW-Dual [2]; [7],0.866
same,NF-kB SEAP reporter activity,RAW-Dual [2]; [8],1.03
CS(=O)(=O)c1ccc(C(=O)C2C(=O)CCCC2=O)c(Cl)c1 (library stock concentration (final ~1000-fold dilution): 10 mM),NF-kB SEAP reporter activity,RAW-Dual [2]; agonist: LPS (TLR4) 0.1 ug/mL,0.694
same,NF-kB SEAP reporter activity,RAW-Dual [2]; [6],0.826
same,NF-kB SEAP reporter activity,RAW-Dual [2]; [7],0.609
same,NF-kB SEAP reporter activity,RAW-Dual [2]; [8],0.667
CS(=O)(=O)c1ccc(C(=O)C2C(=O)CCCC2=O)c(Cl)c1,NF-kB SEAP reporter activity,RAW-Dual [1]; [4],1.07
same,NF-kB SEAP reporter activity,RAW-Dual [1]; [5],1.05
O=S(=O)(CC1CS1)c1ccc(Oc2ccccc2)cc1 (stereo not drawn),NF-kB SEAP reporter activity,RAW-Dual [1]; [4],1.14
same,NF-kB SEAP reporter activity,RAW-Dual [1]; [5],1.92
O=S(=O)(CC1CS1)c1ccc(Oc2ccccc2)cc1 (stereo not drawn) (library stock concentration (final ~1000-fold dilution): 10 mM),NF-kB SEAP reporter activity,RAW-Dual [2]; agonist: LPS (TLR4) 0.1 ug/mL,1.92
same,NF-kB SEAP reporter activity,RAW-Dual [2]; [6],1.22
same,NF-kB SEAP reporter activity,RAW-Dual [2]; [7],0.846
same,NF-kB SEAP reporter activity,RAW-Dual [2]; [8],0.906
COc1ccc2c(c1)[nH]c1c(C)nccc12.Cl (library stock concentration (final ~1000-fold dilution): 10 mM),NF-kB SEAP reporter activity,RAW-Dual [2]; agonist: LPS (TLR4) 0.1 ug/mL,0.816
same,NF-kB SEAP reporter activity,RAW-Dual [2]; [6],0.207
same,NF-kB SEAP reporter activity,RAW-Dual [2]; [7],0.95
same,NF-kB SEAP reporter activity,RAW-Dual [2]; [8],0.698
COc1ccc2c(c1)[nH]c1c(C)nccc12.Cl,NF-kB SEAP reporter activity,RAW-Dual [1]; [4],1.04
same,NF-kB SEAP reporter activity,RAW-Dual [1]; [5],1.02
C[N+]1(C)C2CC(OC(=O)C(CO)c3ccccc3)CC1C1OC12 (stereo not drawn) (library stock concentration (final ~1000-fold dilution): 10 mM),NF-kB SEAP reporter activity,RAW-Dual [2]; agonist: LPS (TLR4) 0.1 ug/mL,1.01
same,NF-kB SEAP reporter activity,RAW-Dual [2]; [6],1.13
same,NF-kB SEAP reporter activity,RAW-Dual [2]; [7],1.27
same,NF-kB SEAP reporter activity,RAW-Dual [2]; [8],1.19
C[N+]1(C)C2CC(OC(=O)C(CO)c3ccccc3)CC1C1OC12 (stereo not drawn),NF-kB SEAP reporter activity,RAW-Dual [1]; [4],1.03
same,NF-kB SEAP reporter activity,RAW-Dual [1]; [5],1.08
CC(=O)OC1CCC2(C)C(=CCC3C4CCC(=O)C4(C)CCC32)C1 (stereo not drawn),NF-kB SEAP reporter activity,RAW-Dual [1]; [5],1.03
CC(=O)OC1CCC2(C)C(=CCC3C4CCC(=O)C4(C)CCC32)C1 (stereo not drawn) (library stock concentration (final ~1000-fold dilution): 10 mM),NF-kB SEAP reporter activity,RAW-Dual [2]; agonist: LPS (TLR4) 0.1 ug/mL,2.05
same,NF-kB SEAP reporter activity,RAW-Dual [2]; [6],0.966
same,NF-kB SEAP reporter activity,RAW-Dual [2]; [7],1.24
same,NF-kB SEAP reporter activity,RAW-Dual [2]; [8],0.768
Br.CN1C2CC(OC(=O)C(CO)c3ccccc3)CC1C(O)C2 (stereo not drawn),NF-kB SEAP reporter activity,RAW-Dual [1]; [4],0.843
same,NF-kB SEAP reporter activity,RAW-Dual [1]; [5],0.949
Br.CN1C2CC(OC(=O)C(CO)c3ccccc3)CC1C(O)C2 (stereo not drawn) (library stock concentration (final ~1000-fold dilution): 10 mM),NF-kB SEAP reporter activity,RAW-Dual [2]; agonist: LPS (TLR4) 0.1 ug/mL,1.11
same,NF-kB SEAP reporter activity,RAW-Dual [2]; [6],1.01
same,NF-kB SEAP reporter activity,RAW-Dual [2]; [7],1.08
same,NF-kB SEAP reporter activity,RAW-Dual [2]; [8],1.73
CCC12C=CCN3CCC4(C(=C(C(=O)OC)C1)Nc1ccccc14)C32.Cl (stereo not drawn),NF-kB SEAP reporter activity,RAW-Dual [1]; [5],1.31
